# Data as given in PubChem BioAssay AID1745845 (National Center for Advancing Translational Sciences (NCATS), 2022).
# The whole screen tested about 360,000 compounds, of which about 2,600 (0.72%) were called active. Inconclusive results, whose numbers are uncertain, are shown with a selection of clear calls. The call rests on the fitted dose curve; in most records, active means well fitted inhibition curve with a large enough effect; inconclusive means small, poorly fitted or top-dose-only effect; inactive means no such curve, though single readings can be large or run the other way. Where the call is inconclusive, the potency comes from a doubtful curve fit.
# Experiment: Primary qHTS for Inhibitors of ATXN expression; further: nearly all actives have a fitted effect of over 55% in size
# Details: HEK-293 ATXN2-luciferase reporter, luminescence, 24 h; series mostly up to 57 µM
# Summary of the method: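 qHTS (up to 57 uM final) was run with 24 h compound exposure of reporter cells at 37 °C. Each well was multiplexed: SteadyGlo luminescence measured ATXN2-luciferase expression after a fluorogenic Gly-Phe-AFC viability readout (25 uM final).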
# Potency means the concentration at half of the fitted maximal effect; tags describe the fitted curve by direction and shape.
row,Structure (SMILES),Potency
1,C[C@@H]1CCN(C(=O)CC#N)C[C@H]1N(C)c1ncnc2[nH]ccc12,inactive
2,Cc1ccc2ncc(C(=O)c3ccc(C)c(C)c3)c(S(=O)(=O)c3ccccc3)c2c1,"inconclusive: 25.1 µM [inhibitor, single point]"
3,NNc1ccc(Cc2ccc(Cl)cc2Cl)nn1,"inconclusive: 35.5 µM [inhibitor, single point]"
4,CCCCC(F)(F)[C@@]1(O)CC[C@H]2[C@H](CC(=O)[C@@H]2CCCCCCC(=O)O)O1,"inconclusive: 0.344 µM [inhibitor, partial curve, poor fit]"
5,CN(CC(=O)Nc1ccc(Cl)c(C(F)(F)F)c1)C(=O)CCc1nc2ccccc2c(=O)[nH]1,"inconclusive: 39.8 µM [inhibitor, partial curve, poor fit]"
6,Cc1ccccc1C(=O)Nc1cccc(C(=O)N/N=C/c2cc(Cl)cc([N+](=O)[O-])c2O)c1,active: 22.4 µM
7,CCOC(=O)c1c(NC(=O)COc2cccc3c2CCN(C)C3=O)sc2c1CCC2,"inconclusive: 25.1 µM [inhibitor, single point]"
8,Cc1ccccc1NC(=O)Nc1nc(CN(C)C)cs1,inactive
9,CN(C)CCNC(=O)c1ccc(COc2ccc(Cl)cc2Cl)cc1,"inconclusive: 22.4 µM [inhibitor, partial curve, poor fit]"
10,CCCOc1ccc(/C=c2\sc3nc(-c4ccco4)nn3c2=O)cc1OCC,"inconclusive: 39.8 µM [inhibitor, partial curve, poor fit]"
11,Cc1cc2oc(C(=O)Nc3ccc(S(N)(=O)=O)cc3)c(C)c2cc1Cl,"inconclusive: 11.2 µM [inhibitor, partial curve]"
12,Cc1[nH]n(-c2ccccc2)c(=O)c1/C=N/NC(=O)c1ccccc1F,"inconclusive: 10 µM [inhibitor, partial curve, poor fit]"
13,CCCOc1ccc(-c2nc(C#N)c(NCCCn3ccnc3)o2)cc1,inactive
14,Cc1ccc(NCC(=O)N/N=C\C(Br)=C\c2ccccc2)cc1,"inconclusive: 39.8 µM [inhibitor, single point]"
15,Cc1ccc(S(=O)(=O)N2CCN(Cc3nnc(-c4c(-c5ccccc5)noc4C)o3)CC2)cc1,inactive
16,CC(C)c1ccc2oc(-c3ccc(Cl)c(NC(=O)Cc4ccccc4)c3)nc2c1,inactive
17,CNC(=O)c1ccc2nc(Cc3ccccc3)oc2c1,inactive
18,Cc1cc(/C=C2/C(=O)NN(c3ccccc3)C2=O)c(C)n1-c1ccc(O)cc1,inactive
19,Cc1ccc(NC(=O)c2ccc(N(Cc3ccccc3)S(C)(=O)=O)cc2)cc1,"inconclusive: 39.8 µM [inhibitor, single point]"
20,CCCCCN(C(=O)CCC(=O)OCc1ccc(C(C)C)cc1)c1c(N)n(CCCC)c(=O)[nH]c1=O,"inconclusive: 12.6 µM [inhibitor, partial curve, poor fit]"
21,CC(=O)Nc1cc(-c2cccc(C(=O)NCCN(C)C)c2)cn2c(-c3ccc(C(C)=O)cc3)cnc12,"inconclusive: 39.8 µM [inhibitor, partial curve, poor fit]"
22,C#CCOCCOCCOCCNc1nc(N2CCN(C(=O)[C@H]([C@@H](C)CC)n3cc([C@@H](N)CC(C)C)nn3)CC2)nc(N2CCN(C(=O)[C@H]([C@@H](C)CC)n3cc([C@@H](N)CC(C)C)nn3)CC2)n1,inactive

row,Structure (SMILES),Potency
1,C=CC[C@@H](Cc1ccc(F)cc1)C(=O)OC[C@H]1CCCN1C(=O)[C@@H](CC=C)CC(=O)N(CCO)Cc1ccccc1,"inconclusive: 39.8 µM [inhibitor, single point]"
2,C[C@H](NC(=O)c1[nH]cnc1C(=O)Nc1ccccc1)c1ccccc1,"inconclusive: 35.5 µM [inhibitor, single point]"
3,CCC(C)(C)C1CCc2[nH]nc(C(=O)NC(C)C)c2C1 (stereo not given),inactive
4,O=C(CNC(=O)c1ccc2c(c1)OCO2)N/N=C/c1cc(Br)ccc1O,"inconclusive: 22.4 µM [inhibitor, partial curve, poor fit]"
5,C[C@H](CO)N1C[C@H](C)[C@@H](CN(C)Cc2ccc(Cl)c(Cl)c2)Oc2c(NC(=O)Cc3ccccc3)cccc2C1=O,active: 28.2 µM
6,COc1ccc(C2CC(=O)Oc3c(C(CCN4CCN(c5ccccc5)CC4)c4ccc(N(C)C)cc4)c(OC)cc(OC)c32)cc1 (stereo not given),inactive
7,O=C(N/N=C/c1ccco1)c1cc(-c2ccc3ccccc3c2)n[nH]1,"inconclusive: 25.1 µM [inhibitor, single point]"
8,COc1ccc(Nc2c3c(nc4ccc(NC(=O)c5cc(Cl)ccc5OC)cc24)CCCC3)cc1OC,active: 3.16 µM
9,Cc1ccc(Nc2nc(N/N=C\c3ccc4c(c3)OCO4)nc(N3CCOCC3)n2)cc1,"inconclusive: 37.7 µM [inhibitor, single point]"
10,Cc1cc(C)cc(NC(=O)N2CCC(N3CCN(Cc4ccccc4)C(=O)C3=O)CC2)c1,inactive
11,CC1(C(=O)Nc2ccc3ccccc3c2)CCC(=O)N1CCc1c[nH]c2ccccc12 (stereo not given),"inconclusive: 39.8 µM [inhibitor, single point]"
12,CC(C)C(=O)N1CCC1(C)C(=O)Nc1ccc2[nH]ccc2c1 (stereo not given),inactive
13,COc1cc(N2CCC(N3CCN(C)CC3)CC2)ccc1Nc1ncc(Cl)c(Nc2ccccc2S(=O)(=O)C(C)C)n1,active: 19.3 µM
14,Cc1cccc(N(CC(=O)N(C)Cc2ccccc2)S(=O)(=O)c2ccccc2)c1C,inactive
15,Cc1ccc(S(=O)(=O)N/N=C\c2ccc(Cl)c([N+](=O)[O-])c2)cc1,"inconclusive: 28.2 µM [inhibitor, partial curve, poor fit]"
16,COc1ccc(C2=NN(C(=O)COC(=O)c3ccc(S(C)(=O)=O)c([N+](=O)[O-])c3)C(c3ccco3)C2)cc1 (stereo not given),"inconclusive: 37.7 µM [inhibitor, single point]"
17,O=[N+]([O-])c1ccc(S(=O)(=O)CC2CSc3nc4ccccc4n32)cc1 (stereo not given),"inconclusive: 7.08 µM [inhibitor, partial curve, poor fit]"
18,O=C(Nc1nc(-c2ccc3c(c2)Cc2ccccc2-3)cs1)c1ccccc1,"inconclusive: 11.2 µM [inhibitor, partial curve]"
19,CC(C)(C)c1ccc(C(=O)NNC(=S)NC(=O)c2cccnc2)cc1,"inconclusive: 25.1 µM [inhibitor, partial curve]"
20,Cc1cc(C)c2sc(N(CCCN(C)C)C(=O)c3ccc(S(=O)(=O)N4CCCc5ccccc54)cc3)nc2c1,"inconclusive: 25.1 µM [inhibitor, single point]"
21,COC(=O)c1scc(-c2ccccc2)c1S(=O)(=O)Nc1ccc(C)c(Cl)c1,"inconclusive: 25.1 µM [inhibitor, single point]"
22,O=C(NCc1cccnc1)c1c[nH]c2cc3c(cc2c1=O)OCCO3,inactive

row,Structure (SMILES),Potency
1,COc1ccc(OC)c(CN2C(=O)c3ccccc3C2c2nnnn2Cc2ccccc2)c1 (stereo not given),inactive
2,Cn1ncc(Oc2ccc([N+](=O)[O-])cc2)c(Cl)c1=O,inactive
3,CCN(C(=O)COc1ccc(C(C)=O)cc1)c1cccc2ccccc12,inactive
4,CC[n+]1c(C=C2C=C(C)OC(C)=C2)sc2ccccc21,active: 10.6 µM
5,N#Cc1ccc(CSc2nnc(COc3ccccc3)n2-c2ccccc2)cc1,"inconclusive: 35.5 µM [inhibitor, single point]"
6,COc1ccc(Cn2c(CCC(=O)Nc3ccc(OC)c(Cl)c3)nc3cccnc32)cc1,inactive
7,c1ccc(CN2CCC3(CC2)Nc2ccccc2CO3)cc1,"inconclusive: 28.2 µM [inhibitor, partial curve, poor fit]"
8,Clc1ccccc1-c1nnc(SCc2nc(-c3ccccc3)no2)n1-c1ccccc1,"inconclusive: 39.8 µM [inhibitor, single point]"
9,CCc1cccc2c(C(=O)CN3C(=O)NC4(CCc5ccccc54)C3=O)c[nH]c12 (stereo not given),"inconclusive: 25.1 µM [inhibitor, partial curve, poor fit]"
10,COc1ccc(NC(=O)CN2CCCN(S(=O)(=O)c3ccc(Br)cc3)CC2)c(OC)c1,inactive
11,Cc1nn(-c2ccccc2)c2ncc(C(=O)c3cc(Cl)ccc3O)cc12,inactive
12,Cc1cc(C)cc(Nc2cc(C(=O)NCCCN(Cc3ccccc3)C(C)C)c3ccccc3n2)c1,active: 14.1 µM
13,COc1cccc(CNC(=O)CCS(=O)(=O)Cc2ccc(C)cc2)c1,inactive
14,CCNC(=O)c1cc2c(-c3cc(OCCN4CCCC4)c(Cl)cc3Cl)nc(N)nc2s1,active: 1.37 µM
15,CCCOc1ccccc1N/C(=N/c1nc(C)cc(C)n1)NC(=O)COc1ccc(OC)cc1,inactive
16,Cc1ccc(C(c2nnnn2C(C)(C)C)N(Cc2ccco2)Cc2cccs2)cc1 (stereo not given),"inconclusive: 25.1 µM [inhibitor, partial curve, poor fit]"
17,COc1ccccc1CNC(=O)CN1C(=O)NC(c2ccccc2)(c2ccc(C)c(C)c2)C1=O (stereo not given),"inconclusive: 35.5 µM [inhibitor, partial curve, poor fit]"
18,COc1ccc(-c2cc(-c3cccs3)c(C#N)c(SCC(=O)NCc3ccccc3OC)n2)cc1,"inconclusive: 22.4 µM [inhibitor, single point]"
19,Nc1nonc1C(=O)NCCNCc1ccccc1OCc1ccc(F)cc1,"inconclusive: 15.8 µM [inhibitor, partial curve, poor fit]"
20,CCOc1cc(/C=N/NC(=O)c2ccc(CN3CCOCC3)cc2)ccc1OCc1ccccc1,"inconclusive: 8.91 µM [inhibitor, full curve, poor fit]"
21,COc1ccc2c(c1)c1c(c(=O)n(CCc3ccccc3)c(=O)n1Cc1ccccc1)n2C,inactive
